# Test results taken from the supplement of paper PMC12632987.
# The full ranking holds about 4,500 sequences; the median of “median log2 fold change of GCK-ALFA target abundance (FLAG IP / Myc IP barcode read proportion)” is about 0.078, and the lowest 2% start at about -0.6. Some of the results follow.
# B1: GBRAP_39_5652 (protein)
# chain: EEEEEAELLFDYYEALAEGYMVEKNISEEELIERGRKLLEKIAKEHPEIAELVKELLKAMEEGDEETKLAAAGIALEAERGTPIEEIAEHIKKFLAYVKK
# B2: GBRAP_139_3713 (protein)
# chain: SKLEELVKEAKEIVKKYRDDIEKLAKKLAELISKADDEARLAIAEAAAKEMKDWSWEKWEKFIELLEKELKKLGLSEDDVLAIKGVMEAVYAKYAIEKEK
# B3: GBRAP_137_3630 (protein)
# chain: ATVEIEVEEYEDVVEITVTLKDAAKAEAVKELVLDVAHEHGALAVSVEVEEDGTLVVTVWVPREKAEAFLEALVRRLQTELGLRVRVRNLDTGEEEEFEP
# B4: GBRAP_35_5604 (protein)
# chain: SITDLLVETTLDYAEALTEGVDEWTPEQVLAHAKALLKLVEDLAADPNVTLEQVEKVIEEVKKLIEALEKRVKEDPSYQPALEVVKKALEILEKKRKELK
# B5: GBRAP_14_3851 (protein)
# chain: VEELVKAVERTAERTKELAAEVLPEHAEEVKEKIEELAEKIIEKIKKENLNKEEVAELMDEMAKELAAFIKARGFANDTEIAAIRAEIISEAALELDKIE
# B6: GBRAP_35_5542 (protein)
# chain: DSDTTIVEMLVNTMEDLVLALPDVDDETFIKLTKHLIDLAEDIVKEQPKDKELIERAIKILEEAIKIIKESSLPEETKKELIERLEKLKEELKKILEKVK
# B7: GBRAP_160_4103 (protein)
# chain: MEKIEELIEDFEEVFEEVLELKDEISADELVNFYDVEMSAVILEAKDELNLSDETVDELLEVRDEIAERLRENYDKSLEEIRRILEEGLERMKEVLEKHS
# B8: GBRAP_9_7180 (protein)
# chain: EEEKKKKILKVVEEEGEEAIELAPEEKKPIMKKLMDEFIEKLKKAAEDKSKTLEEILKLLEELSEKIVEEAKKVVDEETYKLIEAELGTAILESEEIIEE
# Biological target: GABARAP, O95166
# Sequence (O95166 whole entry, the tested form may be a part): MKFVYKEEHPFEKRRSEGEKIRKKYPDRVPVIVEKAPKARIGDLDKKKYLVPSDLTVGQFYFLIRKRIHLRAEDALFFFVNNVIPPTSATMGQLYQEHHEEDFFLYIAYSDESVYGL
# Test: median log2 fold change of GCK-ALFA target abundance (FLAG IP / Myc IP barcode read proportion) (log2 ratio); each designed protein is fused to an ALFA-tag nanobody in HEK293 cells to bring the named protein to FLAG-tagged glucokinase (GCK); Myc marks an untargeted standard; higher = target protein stabilised (more abundant)
# Conditions: target protein: 3xFLAG-MCP-GCK-ALFA reporter; HEK293 landing pad (RPLP)
# In short: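 The readout is target abundance, the per-binder median log2 ratio of FLAG to Myc barcode read proportions. It came from HEK293 landing-pad cells carrying a recombined ALFA-nanobody-fused binder library, induced with 2 μg mL^−1 doxycycline and transfected with a plasmid for a FLAG-tagged target and a Myc-tagged standard. After 48 h, lysates were immunoprecipitated with anti-FLAG and anti-Myc, and circular RNA barcodes were reverse transcribed, amplified and sequenced. Each barcode needed a proportion of at least 10^−7 in both replicates and each binder at least 3 barcodes per replicate, a pseudocount of 10^−6 was added, and the replicates were pooled.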
row,Binder,median log2 fold change
1,B1,-0.0416
2,B2,0.422
3,B3,-0.302
4,B4,0.272
5,B5,0.285
6,B6,-0.192
7,B7,-0.00382
8,B8,0.11
